In all, about 33,000 sequences were measured (“E-score (-0.5 to 0.5)”: median about -0.036, highest 2% from about 0.37 on). The list shows a part of the results.
target: T1, Yer064c (UniProt P40041); assay: PBM E-score (8-mer binding enrichment) (E-score (-0.5 to 0.5)); higher = stronger / more preferred TF binding; most listed sequences are background and not binding sites; conditions: protein concentration: 200 nM; construct: GST-full length
T1 sequence: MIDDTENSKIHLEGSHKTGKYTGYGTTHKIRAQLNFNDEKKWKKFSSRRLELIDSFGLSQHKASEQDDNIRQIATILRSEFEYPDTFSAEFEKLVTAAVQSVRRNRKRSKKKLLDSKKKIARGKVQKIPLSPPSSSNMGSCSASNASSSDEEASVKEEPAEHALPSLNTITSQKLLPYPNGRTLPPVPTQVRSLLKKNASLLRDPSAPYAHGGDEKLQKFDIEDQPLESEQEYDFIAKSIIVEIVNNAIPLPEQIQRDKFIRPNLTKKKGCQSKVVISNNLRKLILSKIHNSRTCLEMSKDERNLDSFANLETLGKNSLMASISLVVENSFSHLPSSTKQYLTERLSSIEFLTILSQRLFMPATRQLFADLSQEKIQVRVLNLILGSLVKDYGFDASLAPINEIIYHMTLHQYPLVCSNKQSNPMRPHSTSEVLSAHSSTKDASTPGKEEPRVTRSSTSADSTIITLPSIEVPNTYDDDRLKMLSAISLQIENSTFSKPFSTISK
Outline: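 Full-length yeast transcription factors or their DNA-binding domains, GST-tagged and expressed with PURExpress, were applied at about 100-200 nM to universal all-10-mer Agilent arrays. These arrays had been made double-stranded by primer extension on fresh or once-stripped slides. Detection used fluorescent anti-GST, normalisation used masliner, and E-scores for ungapped eight-base words pooled with reverse complements came from the Universal PBM Analysis Suite.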

| Sequence | PBM E-score |
| --- | --- |
| AAAAGTCT | 0.0759 |
| CATCAAGA | 0.155 |
| AACGTAAC | -0.0565 |
| TGAATACA | 0.158 |
| CAGACCTC | -0.0957 |
| ACTCCCTG | 0.19 |
| GGGGGCAA | -0.298 |
| ATATATCG | 0.0218 |
| AAGTCGTA | 0.328 |
| AGTCAACA | 0.441 |
| CAGGGCAA | -0.259 |
| GTACAATA | 0.138 |
| TACGGCGA | -0.108 |
| AGAGCATC | -0.249 |
| GGCGGCGA | -0.0567 |
| CCTATAAC | -0.0802 |
| CCGAGTAC | 0.0527 |
| ACTTGGCT | 0.0244 |
| AGCTATTC | -0.234 |
| CACCCGAG | -0.0236 |
| CTAACAGA | 0.0844 |
| GGCGCTCA | -0.243 |
| GATCTCCC | -0.11 |
| ATGCAGTC | 0.353 |
| ACAACAAT | 0.0493 |

| Sequence | PBM E-score |
| --- | --- |
| AATAAAGG | -0.0751 |
| TGAGTTAA | 0.255 |
| AGCTCCTG | -0.136 |
| AGAAGCCG | -0.309 |
| AGGGCACC | -0.29 |
| CCCAAGAG | -0.22 |
| AGCGACTC | 0.412 |
| GTGGTGTA | 0.0407 |
| GCTAGTCA | 0.448 |
| GGTGAAAA | -0.106 |
| CGCAGAGA | 0.0744 |
| AATAAATA | 0.134 |
| CCGACGTC | -0.00888 |
| TAGAGATA | -0.0157 |
| CATACTAA | 0.13 |
| CTGGGCAC | -0.357 |
| CTATTCTC | -0.0442 |
| ACTGATAA | 0.273 |
| ACTCCTCT | 0.0906 |
| ATCTGTCC | -0.0579 |
| AAGGAAAT | -0.0411 |
| CGGCTTAC | -0.147 |
| GTGCCGAA | -0.243 |
| AGGCAGGA | -0.176 |
| CGCAGCAG | -0.14 |

| Sequence | PBM E-score |
| --- | --- |
| AGTTGTAC | 0.0368 |
| CGAGAGTC | 0.421 |
| AAGAACAG | -0.0508 |
| CCATGGAG | 0.0468 |
| CAAAGAAG | 0.0417 |
| GACAGCAC | -0.013 |
| AGCGGGTC | -0.0869 |
| GACAGAAA | 0.147 |
| CTCACGAA | 0.148 |
| AGGAGGGG | -0.0612 |
| GCACATTA | -0.122 |
| AACTCGCA | 0.0388 |
| AAATTGAA | 0.139 |
| AAGAGAAC | -0.0303 |
| CCTAGCCA | -0.0871 |
| ATATGGGA | -0.0175 |
| GATACTCC | -0.147 |
| AGCGAATC | 0.219 |
| CAGTATAA | -0.0651 |
| AAACAGTC | 0.333 |
| GCCTAGAC | -0.121 |
| CGAGTCGA | 0.271 |
| TCGTTTCA | 0.158 |
| ACATTGCC | -0.0958 |
| CGGGAGAG | -0.064 |

| Sequence | PBM E-score |
| --- | --- |
| GATACCAA | -0.154 |
| CTTGACGA | 0.00106 |
| CATCGCGC | 0.118 |
| AATAATAG | -0.0916 |
| CTCGCAAC | 0.0701 |
| GCCTACGC | -0.193 |
| CAAAAAAG | 0.0403 |
| ACGTGGTA | -0.183 |
| AAAGTATG | -0.0222 |
| CCCACGCA | -0.0558 |
| ATTAATCC | 0.256 |
| TCTGCTAA | -0.0505 |
| AGTTAATG | 0.16 |
| ACGTGGTC | -0.0273 |
| CTTGCTAC | -0.214 |
| ACTGGATA | 0.145 |
| AACCCCGT | -0.0415 |
| ACACTTAA | 0.136 |
| ATGTAGGG | -0.295 |
| AGGAACCC | -0.318 |
| CCTATTTA | -0.143 |
| ACCGCACT | -0.138 |
| CAACAGGA | -0.146 |
| AATAACAG | 0.0632 |
| AGTCGAAG | 0.232 |

| Sequence | PBM E-score |
| --- | --- |
| CTACGGGA | 0.00368 |
| ATACCCGC | 0.0214 |
| ACCTCGCT | -0.00735 |
| ATGCTCTC | -0.229 |
| ACGTGGCG | -0.137 |
| CTTAAGGA | 0.132 |
| GTTCGAAC | 0.135 |
| AGGTGCGG | -0.17 |
| TATATAGA | 0.0693 |
| AAGACAGA | -0.0516 |
| AAACATTT | -0.0143 |
| GGTGCACA | -0.0555 |
| ATCGAAAG | 0.0511 |
| ATTCGCAC | -0.0924 |
| CGTTAGAC | -0.00028 |
| AGTATGAG | 0.208 |
| AGGCCGCG | -0.357 |
| CAAACTCG | 0.0844 |
| ACCGGAAT | -0.0986 |
| GAACGGAA | -0.199 |
| CAAATGAG | 0.114 |
| GATAGAGA | -0.117 |
| CGGATGCC | -0.198 |
| AATATTGG | -0.227 |
| AGCCCGTC | -0.285 |

| Sequence | PBM E-score |
| --- | --- |
| AAAACGAA | 0.13 |
| AATGGTTG | 0.0168 |
| ACAGACGT | -0.226 |
| GCCACCCC | -0.122 |
| CATTGATA | -0.0103 |
| TGAAGTCA | 0.445 |
| CACATATA | 0.0408 |
| GCCTATTA | -0.223 |
| CACGACAG | -0.0297 |
| CCCTGGAC | -0.087 |
| CATGAACA | 0.0394 |
| AATTCTCC | -0.18 |
| ACCACTAA | 0.145 |
| AAGGTGGT | -0.153 |
| ACGACAAT | 0.0503 |
| ATTAGAGA | 0.0763 |
| CGAACAAG | -0.0422 |
| CCAGTCAG | 0.248 |
| GCATGATA | 0.116 |
| AGTGTGTC | 0.05 |
| ACACCCGT | 0.0279 |
| GTCCGAAA | 0.0279 |
| GGGCTATA | -0.294 |
| CGCAAGGA | -0.167 |
| CGCGGAGC | -0.229 |

| Sequence | PBM E-score |
| --- | --- |
| GGTTTGAA | 0.0654 |
| CATAGTGC | -0.00185 |
| AAGTTAGC | 0.0512 |
| ATATTCCG | -0.0741 |
| TGTGCACA | -0.0367 |
| CCGTTAGA | 0.00036 |
| GCAGACGA | -0.0411 |
| ATACGACG | -0.0663 |
| CAACGTAG | -0.103 |
| CTGACCCA | 0.0335 |
| CGCTCTTA | -0.00424 |
| GCGGCACC | -0.357 |
| GCTGCGAC | 0.182 |
| GCAAGTTA | 0.0949 |
| CCCGTTGC | 0.101 |
| AACTGTTC | 0.0605 |
| GAAATCGC | -0.00281 |
| ACGCGCAG | -0.155 |
| CCCCCTAG | -0.265 |
| CAATTCGG | -0.189 |
| CTGGAGAA | -0.204 |
| GATACCCC | -0.146 |

— the supplement of paper PMC3334620
